From PMC4336329 (PLoS ONE, 2015)
About 2,200 (0.71%) of roughly 310,000 compounds showed an effect of 50% or more. Effects have a minus sign here. The list shows a part of the results.

These molecules were tested against human ether-à-go-go-related gene (hERG) potassium channel (human, UniProt Q12809) (assay: primary screen, population patch clamp on CHO cells stably expressing hERG).
Sequence of human ether-à-go-go-related gene (hERG) potassium channel (Q12809 whole entry, looked up): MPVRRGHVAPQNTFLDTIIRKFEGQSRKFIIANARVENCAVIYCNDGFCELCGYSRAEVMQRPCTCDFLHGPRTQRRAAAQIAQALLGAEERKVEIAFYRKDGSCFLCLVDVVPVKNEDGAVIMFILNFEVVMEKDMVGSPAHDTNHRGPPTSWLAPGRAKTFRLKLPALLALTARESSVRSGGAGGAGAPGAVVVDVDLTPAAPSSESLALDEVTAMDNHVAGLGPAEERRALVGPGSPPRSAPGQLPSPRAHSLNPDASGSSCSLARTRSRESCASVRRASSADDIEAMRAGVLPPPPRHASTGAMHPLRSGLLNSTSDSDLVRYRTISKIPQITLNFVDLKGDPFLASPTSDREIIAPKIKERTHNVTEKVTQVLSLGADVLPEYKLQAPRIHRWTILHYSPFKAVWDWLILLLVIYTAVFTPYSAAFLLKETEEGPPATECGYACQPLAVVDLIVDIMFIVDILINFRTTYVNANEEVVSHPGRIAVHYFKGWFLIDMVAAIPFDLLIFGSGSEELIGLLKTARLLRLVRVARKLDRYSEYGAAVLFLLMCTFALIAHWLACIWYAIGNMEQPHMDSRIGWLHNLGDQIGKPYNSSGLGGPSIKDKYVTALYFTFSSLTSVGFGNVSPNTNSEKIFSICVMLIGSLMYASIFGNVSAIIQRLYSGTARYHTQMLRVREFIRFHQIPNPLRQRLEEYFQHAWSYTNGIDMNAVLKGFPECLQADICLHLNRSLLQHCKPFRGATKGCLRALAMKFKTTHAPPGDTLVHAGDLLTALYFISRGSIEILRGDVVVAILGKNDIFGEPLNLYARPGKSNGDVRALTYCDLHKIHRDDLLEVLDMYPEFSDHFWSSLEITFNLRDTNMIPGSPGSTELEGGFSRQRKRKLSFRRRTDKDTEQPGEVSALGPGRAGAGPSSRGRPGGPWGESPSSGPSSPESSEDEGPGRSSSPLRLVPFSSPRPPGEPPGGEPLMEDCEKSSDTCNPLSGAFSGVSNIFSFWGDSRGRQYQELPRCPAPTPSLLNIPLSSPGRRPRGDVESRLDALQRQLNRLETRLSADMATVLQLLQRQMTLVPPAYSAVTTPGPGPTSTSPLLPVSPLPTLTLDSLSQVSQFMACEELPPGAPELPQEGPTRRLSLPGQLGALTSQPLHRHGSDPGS

Row | Structure (SMILES) | hERG current change (%, negative = inhibition) at 1uM [%]
1 | COc1ccc(-c2csc3nc(-c4ccccc4OC)oc(=O)c23)cc1 | 0.113
2 | Cc1ccc(S(=O)(=O)N(C)C)cc1NC(=O)COC(=O)Cc1cccs1 | -40.1
3 | Cc1ccn2cc(C34CC5CC(CC(C5)C3)C4)nc2c1 | -5.66
4 | CCc1ccc(-n2c(C)cc(/C=N/NC(=O)OC)c2C)cc1 | 12.1
5 | CC(C)CN1CCN(Cc2nc(C(C)C)cs2)CC1CCO (centres unmarked) | 5.5
6 | O=C(CC1(CC2=NS(=O)(=O)c3ccccc3N2)CCCC1)NCCc1ccccc1 | -0.58
7 | CC1Cc2ccccc2N1C(=O)CSc1nnc(N)s1 (centres unmarked) | 12.2
8 | N#C/C(=C/c1cn(-c2ccccc2)nc1-c1cccc(OCc2ccccc2)c1)C(=O)NCCCn1ccnc1 | 3.73
9 | COc1ccc2[nH]c(=O)c(C(c3nnnn3C(C)(C)C)N(Cc3ccco3)CC3CCCO3)cc2c1 (centres unmarked) | 0.906
10 | COc1ccc(Cc2nnc(SCC(=O)Nc3c(C)cccc3C)[nH]c2=O)cc1 | 8.89
11 | CCN(CC)CC(=O)Nc1sc(C)cc1C(=O)c1ccccc1 | 7.2
12 | CN(c1ccc([N+](=O)[O-])cc1/C=N/NC(=O)COc1ccccc1)C1CCCCC1 | 4.96
13 | O=C(COc1ccccc1)Nc1ncccn1 | 0.695
14 | CCOC(=O)C1(CCOc2ccccc2)CCN(Cc2cccc(O)c2)CC1 | -28.7
15 | CC1CC(=O)N(CC(=O)Nc2ccccc2F)c2ccccc2S1(=O)=O (centres unmarked) | 9.74
16 | CCOc1ccc(CC(=O)OCN2C(=O)c3ccccc3C2=O)cc1 | 8.38
17 | COc1ccc(/C=N/N(CCC(=O)NC(C)(C)C)C2=NS(=O)(=O)c3ccccc32)cc1 | 3.93
18 | COc1ccc2ccccc2c1-c1csc(N)n1 | 18.3
19 | COc1cccc(NC(=O)c2ccc3c(c2)OCO3)c1 | 15.3

Row | Structure (SMILES) | hERG current change (%, negative = inhibition) at 1uM [%]
20 | COc1ccc(CN(C)C(=O)c2cc(S(=O)(=O)N3CCOCC3)ccc2N2CCCC2)cc1 | -9.69
21 | COc1ccc(C(C(=O)NC2CCCC2)N(C(=O)c2snc(-c3ccc(F)cc3)c2N)c2ccc(F)cc2)cc1 (centres unmarked) | 6.52
22 | CCOc1cc(C)nc(N2CCCC(C(=O)NCc3ccccc3F)C2)n1 (centres unmarked) | 6.07
23 | CCN1CCN(S(=O)(=O)c2ccc(C)c([N+](=O)[O-])c2)CC1 | 5.83
24 | CC(=O)c1cccc(NC(=O)C2CCCN2S(=O)(=O)c2cccc3nsnc23)c1 (centres unmarked) | 5.22
25 | Br.COc1ccc(C2CC(c3cccs3)=NN2c2nc(-c3ccccc3)cs2)cc1OC (centres unmarked) | 8.96
26 | C=CCNC(=O)c1cccc(C(F)(F)F)c1 | 17.6
27 | O=C(CC(Cc1ccccc1)C(=O)O)Nc1ccccc1 (centres unmarked) | 20.6
28 | Cn1c(=O)c2c(nc(NCc3ccc4c(c3)OCO4)n2Cc2ccccc2Cl)n(C)c1=O | 5.55
29 | CCCCC(=NCCc1c(C)[nH]c2ccccc12)C1=C(O)CC(c2ccccc2)CC1=O (centres unmarked) | 7.1
30 | O=C(c1ccc(F)cc1)C1CCN(S(=O)(=O)c2ccccc2)CC1 | 5.11
31 | COc1cc(NC(=O)CCc2nnc3ccc(N4CCN(c5cccc(OC)c5)CC4)nn23)cc(OC)c1 | 18
32 | O=C(NCc1cccnc1)C1CC(c2ccccc2O)=NO1 (centres unmarked) | 10.3
33 | Cc1ccc(O)c(C(CC(=O)NC2CCCCC2)c2ccccc2)c1 (centres unmarked) | 14.6
34 | O=C(Cn1cnc([N+](=O)[O-])c1)c1ccc(Cl)cc1 | 5.05
35 | O=C(N/N=C\c1ccc(Br)o1)C1COc2ccccc2O1 (centres unmarked) | 4.24
36 | CCc1nc(N2CCN(C(C)=O)CC2)c(C#N)c2c1COC(C)(C)C2 | 13.4
37 | COc1cccc(-n2nc(-c3ccnn3-c3cccc(Cl)c3)c(=O)n(C)c2=O)c1 | 5.93
38 | CCC(Sc1nc(C)cc(C)n1)C(=O)Nc1ccc(S(N)(=O)=O)cc1 (centres unmarked) | 6.73

Row | Structure (SMILES) | hERG current change (%, negative = inhibition) at 1uM [%]
39 | Cc1ccc(NC(=O)Cc2ccc([N+](=O)[O-])cc2)c(Br)c1 | 5.32
40 | O=C(NCCCN1CCOCC1)c1cc(-c2ccccc2)nc2ccccc12 | 1.74
41 | COc1ccc(/C=C/c2c([N+](=O)[O-])c(=O)n(C)c(=O)n2C)cc1 | 2.78
42 | C/C=C/c1ccc(OCCNCc2ccccc2)c(OC)c1.O=C(O)C(=O)O | 4.38
43 | C=CCNC(=O)CSc1nnc(-c2ccccn2)n1Cc1ccccc1 | 15.1
44 | CCc1ccc(C(=O)NN(C(=O)c2ccc(CC)cc2)C(C)(C)C)cc1 | 6.61
45 | O=C1c2cccnc2C(=O)N1c1ccccc1-c1ccccc1 | 18.6
46 | Cc1cc(C)n2nc(SCCC(=O)NCCc3ccccc3)nc2n1 | -8.94
47 | COC(=O)CCC(=O)NNC(=O)c1cccc(Br)c1 | 1.75
48 | CCNS(=O)(=O)c1ccc(CCC(=O)N2CCN(c3ccccc3)CC2)cc1 | 3.97
49 | O=C(NC(=S)Nc1cc(Cl)ccc1O)c1cccc(Br)c1 | 9.43
50 | CC1c2cccn2CCN1S(=O)(=O)c1ccccc1 (centres unmarked) | 14.6
51 | CC(NC(=O)CN(C)S(=O)(=O)c1ccc(Br)s1)c1ccccc1 (centres unmarked) | 14.9
52 | O=C(/C=C/c1ccccc1)NC(NC(=S)Nc1ccc(Cl)cc1)C(Cl)(Cl)Cl (centres unmarked) | 14.2
53 | O=c1cc(-c2ccccc2)nc2nc[nH]n12 | 10.3
54 | Cc1ccc(OCCNC(=O)c2ccccc2O)cc1 | 16.2
55 | O=C(NCc1ccco1)c1cnn2c(C(F)(F)F)cc(-c3ccco3)nc12 | 3.32
56 | O=C(CN1CCN(Cc2ccccc2)CC1)N/N=C/c1cccnc1 | 1.56
